These results are taken from patent publication US20130102680A1, “METHODS FOR SELECTIVE SILENCING OF SENSORY NEURONS” (CORNELL UNIVERSITY, priority 2011, published 2013).

For this assay, the system named is voltage gated Na+ channels. Description: Neuronal Na+ currents after cap-ET and/or QX-314 loading, whole-cell recording. Conditions: 10 μM PAO + 10 or 50 μM cap-ET 15 min, then 5 mM QX-314 15 min.

`COc1cc(CNC(=O)CCCC/C=C/C(C)C)ccc1OCC[N+](C)(C)C` [cap-ET, capsaicin O-ethyl (trimethyl-ammonium) acetate]: the “voltage-gated Na+ currents after QX-314 in PAO-sensitized neurons” value is “effective reduction of voltage-gated Na+ currents”.
